Measured values published in PubChem BioAssay AID1345083 (National Center for Advancing Translational Sciences (NCATS), 2018).
About 6,200 (6.6%) of roughly 94,000 compounds were called active. The inconclusive results got no clear call from the source; some entries with a clear call stand among them for comparison. Calls come from the whole dose curve; as a rule, active = well fitted inhibition curve with a large enough effect; inconclusive = small, poorly fitted or top-dose-only effect; inactive = flat fitted curve, though single readings scatter. A potency beside an inconclusive call is a rough fit, not a confirmed value.

Assay: Cytotoxic Profiling in HEK 293 Cell Line of Diverse Libraries Using Quantitative High-Throughput Screening; note: nearly all actives have a fitted effect of over 60% in size
Details: HEK 293 viability, ATP luminescence (CellTiter-Glo), 48-72 h; activity change, negative = cytotoxicity: at 115 µM (top of the series) unless noted; series mostly up to 115 µM
Method in brief: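 Luminescence from cellular ATP, measured with CellTiter-Glo, indicates HEK 293 viability. Cells plated at 250 cells/well are treated with compound for 48 or 72 hr at 37 degree Celsius before reagent addition.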
% is set by controls: 0 for no effect and ±100 for the full control effect; potency is the fitted concentration of half-maximal effect; tags give direction and shape of the fitted curve.

SMILES | activity change, negative = cytotoxicity | Potency
O=C(COc1ccc(NC(=O)C2CC2)cn1)NC1CCN(Cc2ccccc2)CC1 | inactive: -4.2% | 
COCC(=O)N1CCN(C(=O)c2cccc(-c3cccc(OC)c3)c2)CC1 | inactive: -21.3% | 
O=C1CC(c2ccccc2)N(Cc2ccncc2)CCCN(C(=O)c2ccc3ccccc3n2)CCN1 (stereo unspecified) |  | inconclusive: 50.1 µM [inhibitor, partial curve, poor fit]
O=C1CO[C@H]2CCN(Cc3nccs3)CC[C@@H]2N1Cc1ccccc1 |  | inconclusive: 100 µM [inhibitor, single point]
COc1ccc(-c2ccc(C(=O)NCc3cccc(Cl)c3)cc2)nn1 |  | inconclusive: 10 µM [inhibitor, full curve]
COc1cccc(CC(=O)N2CCC3(CC2)CC(N(Cc2ccccc2)C2CC2)CCO3)c1 (stereo unspecified) |  | inconclusive: 56.2 µM [inhibitor, partial curve, poor fit]
Cc1nonc1CC(=O)N1CCC(O)(CN2CCOCC2)C(C)(C)C1 (stereo unspecified) | inactive: -2.6% | 
Cc1cc(Cl)ccc1S(=O)(=O)N1CCC(n2cnnc2C)CC1 | inactive: -4.81% | 
C=CCCC(CN1CCOCC1)Oc1ccc2cccc(OC)c2n1 (stereo unspecified) |  | inconclusive: 56.2 µM [inhibitor, partial curve, poor fit]
COc1ccc(NC(=O)O[C@@H]2CO[C@H]3[C@@H]2OC[C@@H]3NC(=O)Nc2cccc(C(F)(F)F)c2)cc1 |  | inconclusive: 50.1 µM [inhibitor, partial curve, poor fit]
CCOC(=O)[C@H]1[C@@H](O)C(=O)N(Cc2ccccc2)C12CCN([S+](C)(=O)[O-])CC2 | inactive: -4.69% | 
CO[C@H]1C(=O)N(C(C)C)[C@H]1C1CCN(S(=O)(=O)Cc2ccccc2)CC1 |  | inconclusive: 89.1 µM [inhibitor, single point]
O=C(C1CCCC1)N1CCc2nc(C3CC3)nc(-c3ccc(O)cc3)c2C1 |  | inconclusive: 89.1 µM [inhibitor, single point]
O=C(COc1ccccc1)N1CCN(C(=O)c2nnn3c2COC(c2ccccc2)C3)CC1 (stereo unspecified) |  | inconclusive: 100 µM [inhibitor, partial curve, poor fit]
Cc1ccc(C(=O)N2CCCC3(C2)NC(=O)N(Cc2cccc(Cl)c2)C3=O)cc1F (stereo unspecified) |  | inconclusive: 8.91 µM [inhibitor, full curve, poor fit]
CC1=C[C@@H](CN2CCN(c3ccccn3)CC2)[C@H](C(C)C)C[C@H]1Cc1nnc(-c2ccccc2)o1 |  | active: 39.8 µM
CN1CCN(c2ccc3ncc(Nc4ccc(F)cc4)n3n2)CC1 |  | active: 112 µM
CN(C)C[C@@H]1CN(Cc2cccnc2)C[C@H]1NC(=O)c1ccc2c(c1)OCO2 | inactive: -11.1% | 
CCC1Oc2ccc(NC(=O)Nc3cccc(OC)c3)cc2CN(Cc2ccc3c(c2)OCO3)C1=O (stereo unspecified) |  | active: 31.6 µM
Cc1ccc(C2Cn3nnc(C(=O)N4CCN(C(=O)c5c(F)cccc5F)CC4)c3CO2)cc1 (stereo unspecified) |  | inconclusive: 63.1 µM [inhibitor, partial curve, poor fit]
CNC1=C(c2ccc(F)cc2)C(=O)N(Cc2ccccc2)C1 |  | inconclusive: 79.4 µM [inhibitor, single point]

SMILES | activity change, negative = cytotoxicity | Potency
Cc1ccc(Nc2ccnc(N3CCC(C(=O)Nc4ccccc4F)CC3)n2)cc1 |  | inconclusive: 44.7 µM [inhibitor, partial curve, poor fit]
N[C@H]1CCN2C(=O)c3cc(-c4ccc(F)cc4F)ccc3NC(=O)[C@H]12 |  | inconclusive: 112 µM [inhibitor, single point]
CCNC(=O)[C@@H]1C[C@H](NC(=O)CCc2ccccc2)CN1Cc1cnc[nH]1 | inactive: 3.34% | 
O=C(NCc1ccccc1)N1CC[C@H](c2nc3ccc(F)cc3[nH]2)C1 |  | inconclusive: 126 µM [inhibitor, single point]
CCNC(=O)N1Cc2[nH]cnc2C[C@H]1c1nc(-c2ccc(F)c(Cl)c2)no1 |  | inconclusive: 126 µM [inhibitor, single point]
C[S+](=O)([O-])N1CCNc2cnc(Nc3cccc(C(F)(F)F)c3)nc2C1 |  | inconclusive: 100 µM [inhibitor, partial curve]
O=c1n(-c2ccncc2)nc2n1CCN(Cc1ccc(OC(F)(F)F)cc1)C2 |  | active: 22.4 µM
O=C(c1ccccc1Cl)N1CCCC(C(=O)N2CCCC2c2nc3ccncc3[nH]2)C1 (stereo unspecified) | inactive: -2.07% | 
Cc1ccc(Cn2c(C3CCN(C(=O)Cc4cccs4)CC3)n[nH]c2=O)cc1 | inactive: -7.26% | 
COc1ccc(CC(=O)NCCNC(=O)c2ccc(-c3cccc(OC)c3)cc2)cc1 |  | inconclusive: 44.7 µM [inhibitor, partial curve]
CC(=O)Nc1ccc(C2(C(=O)N3CCN(c4ccccc4)CC3)CCCCC2)cc1 |  | inconclusive: 44.7 µM [inhibitor, partial curve, poor fit]
COc1ccc(-c2noc(-c3cccn3CC(=O)N3CCOc4ccc(C)cc43)n2)cc1F |  | inconclusive: 25.1 µM [inhibitor, full curve]
Cc1cccc(C(=O)N2CC(N(CC3CC3)C3CCOCC3)C2)c1 | inactive: -8.61% | 
Cc1cccc(-c2nc3cc(C(=O)NCc4cccs4)ccc3o2)n1 |  | inconclusive: 50.1 µM [inhibitor, partial curve, poor fit]
CN(Cc1cccnc1)c1nc2c(c(=O)[nH]1)CCN(Cc1cc(F)cc(F)c1)CC2 | inactive: -4.75% | 
Cc1ccc(CN2CCCN(Cc3ccncc3)C(c3ccccc3)CC(=O)NCC2)s1 (stereo unspecified) |  | inconclusive: 39.8 µM [inhibitor, partial curve, poor fit]
Cc1cccc(NC(=O)N2CCc3c(c4ccccc4n3C)C2)c1C |  | inconclusive: 50.1 µM [inhibitor, partial curve, poor fit]
C=CCOc1c(OC)ccc2c1CN(CCOC)C(=O)CCN2CC(O)COc1ccc(OC)cc1 (stereo unspecified) |  | inconclusive: 89.1 µM [inhibitor, single point]
O=C(c1ccc2nnc(-c3cncc(Cl)c3)n2c1)N1CCC(c2ccccc2)CC1 |  | inconclusive: 56.2 µM [inhibitor, partial curve, poor fit]
CC(C(=O)NCCc1ccccc1)N1C(=O)COc2ccc(C(=O)COc3ccc(Cl)cc3)cc21 (stereo unspecified) |  | active: 44.7 µM
